In all, about 310,000 compounds went through this assay and about 2,200 (0.71%) showed an effect of 50% or more. The effect is printed as a negative number. This is one part of the list.
biological target: human ether-à-go-go-related gene (hERG) potassium channel (human, UniProt Q12809); test: primary screen, population patch clamp on CHO cells stably expressing hERG
Sequence (Q12809 whole entry, looked up): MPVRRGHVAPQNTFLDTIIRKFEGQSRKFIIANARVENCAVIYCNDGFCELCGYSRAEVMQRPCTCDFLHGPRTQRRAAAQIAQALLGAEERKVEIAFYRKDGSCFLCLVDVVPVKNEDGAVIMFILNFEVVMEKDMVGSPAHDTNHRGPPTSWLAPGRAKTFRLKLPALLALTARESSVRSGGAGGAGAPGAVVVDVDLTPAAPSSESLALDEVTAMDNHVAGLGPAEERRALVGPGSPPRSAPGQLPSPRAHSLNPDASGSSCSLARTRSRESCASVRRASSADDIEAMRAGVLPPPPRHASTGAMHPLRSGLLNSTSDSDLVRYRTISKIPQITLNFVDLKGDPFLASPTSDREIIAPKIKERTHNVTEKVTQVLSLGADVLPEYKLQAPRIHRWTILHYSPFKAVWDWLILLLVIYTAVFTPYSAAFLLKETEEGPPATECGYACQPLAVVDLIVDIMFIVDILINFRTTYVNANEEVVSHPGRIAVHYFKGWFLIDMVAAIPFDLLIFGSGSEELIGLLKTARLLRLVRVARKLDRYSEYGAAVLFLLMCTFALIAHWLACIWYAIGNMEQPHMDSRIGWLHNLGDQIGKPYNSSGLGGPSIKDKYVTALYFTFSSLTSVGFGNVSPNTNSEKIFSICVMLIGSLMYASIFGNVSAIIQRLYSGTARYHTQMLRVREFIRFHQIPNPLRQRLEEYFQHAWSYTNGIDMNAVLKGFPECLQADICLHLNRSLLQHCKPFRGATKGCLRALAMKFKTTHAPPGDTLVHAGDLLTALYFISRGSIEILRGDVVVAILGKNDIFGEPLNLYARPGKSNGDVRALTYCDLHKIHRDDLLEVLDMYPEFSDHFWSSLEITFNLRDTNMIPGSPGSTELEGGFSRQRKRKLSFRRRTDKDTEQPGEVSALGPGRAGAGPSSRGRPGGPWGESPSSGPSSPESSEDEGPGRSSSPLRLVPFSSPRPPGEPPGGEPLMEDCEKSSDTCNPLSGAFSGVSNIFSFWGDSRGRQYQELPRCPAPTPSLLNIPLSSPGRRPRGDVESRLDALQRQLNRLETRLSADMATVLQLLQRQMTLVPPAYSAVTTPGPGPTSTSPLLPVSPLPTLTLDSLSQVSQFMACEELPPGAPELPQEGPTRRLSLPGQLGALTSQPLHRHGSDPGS

| Compound | hERG current change (%, negative = inhibition) at 1uM |
| --- | --- |
| Cc1cccnc1NC(=O)C1CCCN1S(=O)(=O)c1ccc(Cl)cc1 (stereo not drawn) | 10.6% |
| Cc1c(CC(=O)O)c(=O)oc2c(C)c3occ(-c4ccc(Br)cc4)c3cc12 | 7.51% |
| CC(NC(=O)C(=O)NN=C1CCC(C(C)(C)C)CC1)c1ccccc1 (stereo not drawn) | -1.12% |
| O=S(=O)(Nc1cccc(-c2cn3cccnc3n2)c1)c1ccc(-c2ccccc2)cc1 | 12.7% |
| O=C(CN1C(=O)CSC1=O)N1CCCCC1 | 5.48% |
| Cc1ccc(CNCCNCCO)s1.Cl | 1.64% |
| CCCCNc1c(-c2ccc(SC3CCCCC3)cc2)nc2ccccn12.O=C(O)C(F)(F)F | 6.71% |
| C=C1[C@H]2CC[C@H]3[C@]4(C)C[C@H](O[C@H]5O[C@H](CO)[C@@H](OS(=O)(=O)[O-])[C@H](OS(=O)(=O)[O-])[C@H]5OC(=O)CC(C)C)C[C@@H](C(=O)O)[C@H]4CC[C@]3(C2)[C@H]1O.[K+] | 12.9% |
| COc1cccc(CNC(=O)Cc2ccc(S(=O)(=O)N3CCOCC3)s2)c1 | 18.8% |
| CC(C)Sc1nc2c(c(=O)[nH]1)C(c1cccs1)C1=C(CC(C)(C)CC1=O)N2 (stereo not drawn) | 12.6% |
| CC(=O)c1cccc(OCc2cc(C(=O)NC3CCN(Cc4ccccc4)CC3)no2)c1 | -9.14% |
| O=C(CSc1nnc(NC(=O)c2ccco2)s1)NCc1ccc2c(c1)OCO2 | 13.8% |
| COc1ccc2c(c1)c(=O)oc1cc(OCC(=O)NC3CC3)ccc12 | 11% |
| COc1ccc(OC)c(S(=O)(=O)NCCC2=CCCCC2)c1 | 9.08% |
| COc1cccc(C(=O)NNC(=O)/C=C/c2ccccc2)c1 | 9.37% |
| CN(C1CCCCC1)S(=O)(=O)c1ccc(NC(=O)C2CCCCC2C(=O)O)cc1 (stereo not drawn) | 10.3% |
| Cc1cccc(NC(=O)CSc2nc(-c3ccccc3)c(C#N)c(=O)[nH]2)c1C | -6.04% |
| COc1cc(C)nc(Nc2nc(C)c(C(C)=O)s2)n1 | 9.53% |
| Cc1nc2nc(C)c(CCC(=O)NC(C)c3ccc4c(c3)OCCO4)c(C)n2n1.Cl (stereo not drawn) | 8.47% |
| CCN(CC)S(=O)(=O)c1ccc(N2CCCC2)c(NC(=O)Cc2ccccc2)c1 | 4.67% |
| Cc1ccc(S(=O)(=O)N2CCN(C(=O)CN3CCN(C)CC3)C2)cc1 | 13.8% |
| O=C(Cn1cnc2cc([N+](=O)[O-])ccc2c1=O)NC(c1ccccc1)c1ccccc1 | 5.21% |

| Compound | hERG current change (%, negative = inhibition) at 1uM |
| --- | --- |
| COc1cc(CNC2CCCC2)cc(OC)c1 | 14.3% |
| Nc1c(C(=O)Nc2ccc3c(c2)OCCO3)nnn1Cc1ccc(Cl)cc1 | 5.81% |
| CCOc1ccc(Cl)cc1S(=O)(=O)N1CCC(C(=O)NCC2CCCO2)CC1 (stereo not drawn) | 8.18% |
| O=C(Nc1nncs1)c1cc2c(s1)CCC2 | 13.2% |
| CCN(CC(=O)Nc1ccc2c(c1)OCCO2)C(=O)CC1CCCC1 | 4.08% |
| COc1ccccc1C(=O)NCC(=O)OC(C)C(=O)NC1CCCCC1C (stereo not drawn) | 12.5% |
| COc1ccccc1C1CCN(c2ccc([N+](=O)[O-])cn2)CC1 | 0.937% |
| O=S(=O)(Cc1ccco1)Cc1nc(-c2ccc(Cl)cc2)cs1 | 9.1% |
| C[C@H](N)CN1CCc2ccc(Br)cc21.O=C(O)/C=C/C(=O)O | 3.97% |
| Cc1ccnc(N2C(=O)c3ccccc3C2=O)c1 | 12.8% |
| C/C(CC(=O)NCc1ccco1)=N\NC(=O)Cc1ccc(-c2ccccc2)cc1 | 7.56% |
| CSc1ccccc1NC(=O)CNCCCN1CCOCC1.O=C(O)C(=O)O | 7.46% |
| CCOC(=O)c1c(C)oc2cc(Br)c(OC)cc12 | 11.5% |
| O=C(COc1ncnc2cc([N+](=O)[O-])ccc12)NC1CCCCC1 | 10.6% |
| COc1ccc(NC(=O)c2ccco2)cc1NC(=O)c1ccccc1F | 22.2% |
| CNc1nc(N)c([N+](=O)[O-])c(NCCO)n1 | 13.6% |
| CC(C)(C)NCc1cccn1-c1sc2c(c1C#N)CCCC2 | 3.29% |
| CC(C)(C)C1CCC(C(=O)Nc2ccccc2)CC1 (stereo not drawn) | 6.47% |
| COc1ccc(NC2=C(NCCO)C(=O)c3ccccc3C2=O)cc1 | 12.2% |
| Cn1c(CN2CCN(C(=O)c3ccccc3)CC2)nc2cc([N+](=O)[O-])ccc21 | -29.6% |
| N#C/C(=C\c1ccc(OCc2ccccc2)cc1)C(N)=O | 2.11% |
| CC(C)Nc1ncnc2c1cnn2Cc1ccc(Cl)cc1 | 2.45% |

| Compound | hERG current change (%, negative = inhibition) at 1uM |
| --- | --- |
| N#CCSc1nnc(C2CCCCC2)n1Cc1ccccc1 | 3.1% |
| COCCCOc1ccnc(CS(=O)c2nc3ccccc3[n-]2)c1C.[Na+] (stereo not drawn) | 7.48% |
| CCCSc1nc(O)c(C(c2ccc(OC)c(O)c2)c2c(O)nc(SCCC)n(C)c2=O)c(=O)n1C | 4.06% |
| Cc1nc([N+](=O)[O-])cn1CC(O)c1ccccc1 (stereo not drawn) | 27.6% |
| CCN(C(=O)Cn1cnc2ccccc2c1=O)C1CCS(=O)(=O)C1 (stereo not drawn) | 4.39% |
| O=c1c2cc(NC(=S)NC3CCCCC3)ccc2nc2n1CCCCC2 | -9.63% |
| Cc1cccc(C(=S)N2CCOCC2)n1 | 7.26% |
| CCOc1ccccc1NC(=O)C(NCCN(C)C)c1ccccc1.O=C(O)C(=O)O (stereo not drawn) | -49.1% |
| O=C(Cn1c2c(c(-c3ccccc3)cc1=O)CCCC2)N1CCCCCC1 | 9.85% |
| Cc1ccc(S(=O)(=O)N(C)CC(=O)NCC(c2ccc(F)cc2)N2CCOCC2)cc1 (stereo not drawn) | 3.5% |
| CCOC(=O)c1cnn(C)c1NC(=O)c1ccc(Cl)cc1Cl | 3.54% |
| CCC(C)c1ccc(NC(=S)NCc2cccnc2)cc1 (stereo not drawn) | -7.31% |
| Br.Oc1ccc(C2CNCCc3c2cc(O)c(O)c3Cl)cc1 (stereo not drawn) | 2.61% |
| COCCN(C(=O)c1ccc(NC2CC2)c([N+](=O)[O-])c1)c1c(N)n(CC(C)C)c(=O)[nH]c1=O | 0.665% |
| Cn1nnc2cc(C(=O)NC(C)(C)C)ccc21 | 5.98% |
| COc1ccc(OCC(=O)Nc2cc(NC(=O)c3ccco3)ccc2OC)cc1 | 8.94% |
| COc1cccc(N2CCN(c3ccc4nnc(CCC(=O)N5CCN(C)CC5)n4n3)CC2)c1 | 15.4% |
| Oc1ccc(Cl)cc1CN1CCN(Cc2ccccc2)CC1 | 10.9% |
| COc1ccccc1CC(=O)Nc1ccc(S(=O)(=O)N2CCN(C)CC2)cc1 | 16.3% |
| COc1ccc(Br)cc1S(=O)(=O)NCCN1CCOCC1 | 9.2% |
| Cn1c(SCc2cnc(-c3ccccc3)s2)nnc1C1COc2ccccc2O1 (stereo not drawn) | 4.31% |
| Cc1ccc(C(=O)NCc2ccc3c(c2)OCO3)cc1N1CCCC1=O | 12.6% |

| Compound | hERG current change (%, negative = inhibition) at 1uM |
| --- | --- |
| COC(=O)c1cccc(NC(=O)C2C3CCC(C3)C2C(=O)O)c1 (stereo not drawn) | -1% |
| CC1Cc2nc(SCC(N)=O)n(C)c(=O)c2S1 (stereo not drawn) | 0.645% |
| CCCc1cc(=O)oc2cc(OCC(=O)NCCCn3ccnc3)c(Cl)cc12 | 1.29% |
| Cc1ccc(-n2nc3c(=O)n(CCCC(=O)NCc4ccccc4Cl)nc(C)c3c2C)cc1 | 7.78% |
| O=c1c(-c2ccc(Cl)cc2)[n+]([O-])c2ccccc2n1OCc1nc2ccccc2[nH]1 | 7.99% |
| Cc1ccc(C(O)(C(=O)NNc2ccccn2)c2ccc(C)cc2)cc1 | 9.2% |
| COc1ccc(-c2csc3ncn(-c4ccccc4OC)c(=O)c23)cc1OC | 0.0337% |
| Cc1c(C(=O)Nc2cccc(Cl)c2)oc2ccc(S(=O)(=O)N3CCC4(CC3)OCCO4)cc12 | 2% |
| COc1ccc(S(=O)(=O)N(C)c2ccccc2)c2cccnc12 | -0.411% |
| O=[N+]([O-])c1ccc2c(c1)OCCOCCOCCOCCOCCOCCO2 | -32.5% |
| CC(=C1C(=O)c2ccccc2C1=O)N1CCN(C/C=C/c2ccccc2)CC1 | -4.38% |
| O=C(CCN1CCN(c2ccccc2)CC1)Nc1ccc(Cl)cc1 | 9.14% |
| Cc1ccc(C(=O)N2CCSC2=S)cc1 | 9.04% |
| Cc1csc(CN(C)C(=O)C2CCC(=O)N(Cc3ccc(Cl)cc3)C2)n1 (stereo not drawn) | 1.23% |
| COc1cccc(NC(=O)Cc2c(C(=O)O)[nH]c3ccccc23)c1 | -1.12% |
| O=C(COC(=O)Cc1cccs1)NCc1ccc(F)cc1 | 17% |
| COc1ccc(NC(=O)CSc2nnc(-c3ccoc3C)n2CCc2ccccc2)cc1 | 1.36% |
| CCN(C(=O)COC(=O)C1CCN(S(=O)(=O)c2ccc3c(c2)OCCO3)CC1)C1CCCCC1 | 18% |
| CN(CCCN1CCCCC1)C(=O)CCc1nnc(C2CCCCC2)o1 | 14.1% |
| CN(c1ccccc1)S(=O)(=O)c1cccc(NC(=O)CN2C(=O)NC3(CCCCC3)C2=O)c1 | 9.71% |
| O=C(NC1CC1)c1ccc(NS(=O)(=O)c2ccccc2)cc1 | 18.4% |

Source: PMC4336329 (PLoS ONE, 2015)
